Source: PubChem BioAssay AID1508624 (National Center for Advancing Translational Sciences (NCATS), 2021)
Screen size: about 48,000 compounds; about 120 (0.25%) were called active. Inconclusive results (about 4%) are left out. The call rests on the fitted dose curve; in most records, active means well fitted activation curve with a large enough effect; inconclusive means small, poorly fitted or top-dose-only effect, or another doubt; inactive means no such curve, though single readings can be large or run the other way. Some of the results follow.

Assay: Primary qHTS for Identification of Small Molecule Activators of Huntingtin-Antisense Promoter Activity; further: nearly all actives have a fitted effect of over 55% in size
Settings: HEK293 HTT-AS promoter firefly luciferase reporter, 24 h; series mostly up to 57.5 µM; activity change, positive = activation: at the top concentration
Procedure, shortened: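 Firefly luciferase signal from promoter-reporter HEK293 cells was scaled between vehicle (0%) and zero RLU (-100%). Compounds were tested at final concentrations of up to 57.5 uM over 24 h at 37 degrees C. PTC124 at 50 uM final served as control inhibitor.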

Activity change, positive = activation, inactive:
COc1cccc(NC(=O)CSc2nnc3[nH]c(=O)cc(-c4ccccc4)n23)c1 37.8%, CC(=O)Nc1ccc(NC(=O)c2ccc3c(c2)CCN3S(=O)(=O)c2ccc(Cl)cc2)cc1 -35%, CCc1ccc(NS(=O)(=O)c2cc(Br)cc3c2N(C(C)=O)CC3)cc1 -1.14%, COc1ccc(CCNc2oc(/C=C/c3ccc(OC)c(OC)c3)nc2C#N)cc1 -13.9%, CCCOc1ccccc1C(=O)N1CCCCC1CCN1CCCCC1 (configuration not stated) -13.2%, CCC(=O)N1c2ccccc2CC1C(=O)NCCc1ccccc1OC (configuration not stated) -11.4%, CCc1ccc(-n2nc(C)c3c(C(=O)Nc4ccc(Cl)cc4)cc(C)nc32)cc1 5.33%, CN1CC(=O)N2[C@H](c3ccc4c(c3)OCO4)c3[nH]c4ccccc4c3C[C@@H]2C1=O -2.19%, Cc1ccc(C)c(-c2ccc(=O)n(C(C)C(=O)Nc3ccccc3C(F)(F)F)n2)c1 (configuration not stated) -27.2%, CCCCNC(=O)CSc1nc(-c2ccc(OC)cc2)cc(C(F)(F)F)n1 -8.23%, O=C(NC1CC(=O)N(c2cccc(F)c2)C1)c1ccc(S(=O)(=O)N2CCCCC2)cc1 (configuration not stated) -13.7%, Cc1ccc(OCC(=O)Nc2nnc(SCc3cc(=O)n4cc(C)ccc4n3)s2)cc1 -12.4%, COC(=O)c1ccccc1NC(=O)CCn1c(=O)c2cccn2c2cccnc21 -10.2%, COc1ccc(C(=O)Nc2cc(-c3nc4ncccc4o3)ccc2C)cc1Br -22.3%, O=c1c2sc3ccccc3c2n(Cc2ccccc2F)c(=O)n1-c1ccccc1Cl -12.2%, COc1cccc(CNC(=O)CSc2nc3ccccc3nc2Cc2ccccc2)c1 -16.3%, CCN(CC)S(=O)(=O)c1ccc2nc(NC(=O)c3ccccc3OC)sc2c1 -31.3%, Cc1nnc(N2CCC(C(=O)NCc3ccc(F)cc3)CC2)c2nn(-c3ccc(Cl)cc3)c(C)c12 -39.5%, Cc1ccc2c(c1)cc(C(=O)NCc1ccc(F)cc1)n2C 2.1%, COc1ccccc1N1CCN(c2ccc(=O)n(CC(=O)O)n2)CC1 -7.33%, CCOCC(=O)Nc1ccc(-c2cn3c(C)csc3n2)cc1 -80.2%, CCCCOc1ccc(C(=O)NCCS(=O)(=O)N2CCN(c3ccccc3OC)CC2)cc1 -46.1%, CC(C)NCC(O)COc1ccc(CCOCC2CC2)cc1 (configuration not stated), CN(C)c1ccc(C(CNC(=O)c2ccccc2Cl)N2CCc3ccccc32)cc1 (configuration not stated) -2.36%, O=C(COc1ccc(Cl)cc1)Nc1ccc(O)c(-c2nc3ccccc3s2)c1 -1.57%, Cc1ccc(Cn2c(C(=O)O)c(CNCCc3cccs3)c3ccc(C)cc32)cc1 -15.3%, O=C(NC1CC(=O)N(c2ccc(F)cc2)C1)c1ccc(S(=O)(=O)N2CCCC2)cc1 (configuration not stated) -23.1%, CCN(C(=O)CSc1nc2ccccc2nc1Cc1cccc(OC)c1)c1cccc(C)c1 -34.4%, Cc1ccc(NC(=O)Nc2nc3c(s2)CCCCCC3)cc1C 23.3%, Cc1cc(Br)ccc1NC(=O)COc1cc(=O)n(C)c2ccccc12 -22%, COc1ccccc1NC(=O)c1ccc2[nH]c(C)cc(=O)c2c1 0.0203%, c1ccc2sc(SN3CCOCC3)nc2c1 6.64%, Cc1cc2ccccc2n1CCNC(=O)c1ccccc1F -8.42%, O=c1c2sc3ccccc3c2n(Cc2ccc(F)cc2)c(=O)n1Cc1ccco1 -14.8%, CC(=O)Nc1ccc(OC(=O)c2ccccc2OC(C)=O)cc1 -15.6%, CC(C)c1ccc(S(=O)(=O)c2nnn3c2nc(NCc2cccs2)c2sccc23)cc1 -9.38%, O=C(NCC(c1ccc2c(c1)OCO2)N1CCN(c2ccccc2)CC1)C(=O)Nc1ccccc1 (configuration not stated) 3.45%, COc1ccc(C(=O)Nc2ccccc2)cc1S(=O)(=O)Nc1ccc(Br)cc1 -17.9%, O=C(OCc1cc(=O)n2nc(C3CC3)sc2n1)c1ccc(NC(=O)c2ccccc2Cl)cc1 -35%, CCc1ccc2oc(C(=O)Nc3cc(Cl)ccc3OC)cc(=O)c2c1 9.34% [at 11.5 µM, percent change from vehicle, -100% = no light], Cc1c(C(=O)Nc2ccccc2)sc2nc(-c3cc4ccccc4oc3=O)[nH]c(=O)c12 2.15%, O=C(Nc1ccc2nc(SCC(=O)N3CCCc4ccccc43)sc2c1)c1ccccc1F -21.9%, Fc1ccc(Nc2nc(-c3cccc(Cl)c3)c3c(n2)-c2ccccc2OC3)cc1 -8.39%, CC(=O)[C@@]1(O)CC[C@H]2[C@@H]3C[C@H](C)C4=CC(=O)C=C[C@]4(C)[C@@]3(F)[C@@H](O)C[C@@]21C -0.74%, COc1cccc(CNc2ncnc3c2nnn3C)c1 -5.34%, CNC(=O)C1CCC(Cn2c(=O)c3sccc3n(CC(=O)N3CCCC3)c2=O)CC1 (configuration not stated) -16.7%, COc1cccc(C2CC(=O)Nc3c2c(=O)[nH]c2ncnn32)c1OC (configuration not stated) -0.13%, Cc1cccc2cc(CN(C(=O)c3cccc(Cl)c3)c3ccccc3)c(=O)[nH]c12 -25.2%, CCc1nc(N)nc(N)c1-c1ccc(Cl)cc1, CCOc1ccc(C2C(C(N)=O)=C(C)Nc3nc(-c4ccc(OC)cc4)nn32)cc1 (configuration not stated) -1.96%, COc1ccccc1Nc1nn2c(=O)c3ccc(C(=O)NC4CCC(C)CC4)cc3nc2s1 (configuration not stated) -4.69%, COc1ccccc1C(=O)Nc1cccc(OCc2cc(=O)n3c4c(sc3n2)CCCC4)c1 0.0485%, O=C(C1CCN(S(=O)(=O)c2ccc(Br)s2)CC1)N1CCN(c2ccc(F)cc2)CC1 -30.8%, O=C(Cn1c2ncccc2c(=O)n1-c1ccccc1)Nc1ccc(Cl)cc1C(F)(F)F -6.26%, COCc1cc(C)nc2sc3c(c12)NC(c1ccc(O)cc1)N(c1ccc(C)cc1)C3=O (configuration not stated) -21.1%, O=C(OCc1cccc(C(F)(F)F)c1)c1ccc(-c2nnn(Cc3ccc(F)cc3)n2)cc1 -10.1%, Cc1nn(C(=O)c2ccccc2)c(C)c1S(=O)(=O)N1CCCCCC1 -17.8%, CCN(C(=O)c1cn(-c2ccc(OC)cc2)c(=O)c2ccccc12)c1cccc(Cl)c1 -34.3%, CCn1c(=N)c(C(=O)NC2CCCC2)cc2c(=O)n3ccccc3nc21 -4.17%, CC(C)N1CCc2nc(SCC(=O)Nc3cccc(F)c3)[nH]c(=O)c2C1 12.9%, COc1ccc(-c2nc3scc(CCNC(=O)c4cc(OC)cc(OC)c4)n3n2)cc1 -20.2%, CCOc1ccc(C(=O)OCc2cc(=O)n3cc(C)sc3n2)cc1 -2.29%, CCCCCn1cc2c(c1-c1ccc(Cl)cc1)c(=O)n(C)c(=O)n2C -16.9%, COc1ccc2c(c1)C=C(C(=O)NCc1cc(Br)ccc1OC)CO2 -20%, Cc1cccc(C(=O)Nc2ccc3oc(-c4ccncc4)nc3c2)c1 -19.1%, COc1ccccc1NC(=O)c1sc2ncn(Cc3ccccc3Cl)c(=O)c2c1C -8.38%, CCOC(=O)C1CCCN(S(=O)(=O)c2ccc3[nH]c(=O)oc3c2)C1 (configuration not stated) -19.4%, CCc1ccccc1NC(=O)c1sc(-n2nc(C)c(Cc3ccc4c(c3)OCO4)c2C)nc1C -5.3%, CCOc1ccc(CNC(=O)C2CCN(S(=O)(=O)c3cn(C)cn3)CC2)cc1OC -7.15%, COc1cccc(CN2C(=O)CN(C3CCCCC3)C(=O)C2c2ccc(OC)c(OC)c2)c1 (configuration not stated) -18.5%, COc1ccc2c(c1)c1c(c(=O)n(-c3ccccc3C)c(=O)n1CC(=O)N1CCCC1)n2C -16.8%, COc1ccc(C2C=C(c3ccccc3)Nc3nc(NC(=O)/C=C/c4ccc(F)cc4)nn32)cc1 (configuration not stated) -17.3%, CCC(C)Sc1c(C(C)C)cnc2c1c(=O)n(C)c(=O)n2C (configuration not stated) -36.7%, COc1ccc(-c2cc(C(F)(F)F)c(C#N)c(SCC(=O)Nc3ccccc3F)n2)cc1 -8.06%, COc1ccc(-n2c(/C=C/c3c(C)[nH]c4ccccc34)nc3ccccc3c2=O)cc1 -11.8%, COc1cccc(CNc2nccn(-c3ccc(OC)c(OC)c3)c2=O)c1 -1.98%, Cc1nn(C)c2c1c(-c1ccccc1)cc(=O)n2Cc1ccc(Cl)cc1 -25.1%, COc1ccccc1C(=O)Nc1ccc(OCc2cc(=O)n3ccc(C)cc3n2)cc1 -1.11%, COc1ccc(CNC(=O)c2cnn(-c3ccc(C)cc3)c2-n2cccc2)cc1OC -37.4%, O=C(CSc1ncc(CO)n1Cc1ccc(Cl)cc1)NCc1ccc(F)cc1 -29.7%, COc1ccc(C(=O)Oc2cc(-c3ccc4c(c3)OCO4)cc(=O)c3c(C)oc(C)c23)cc1 -10.7%, Cc1cccc(NC(=O)CSc2nc(=O)n(Cc3ccccn3)c3c2CCC3)c1C -22.7%, COc1ccc(CNC(=O)c2cc3cccc4c3n2CC(C)S4)c(OC)c1 (configuration not stated) -44.3%, Cc1ccc(Cl)cc1NC(=O)CSc1nc2c(c(=O)[nH]1)CN(Cc1ccccc1)CC2 -9.97%, COc1ccc(S(=O)(=O)N2CCN(CC(=O)Nc3ccc(Cl)c(C(F)(F)F)c3)CC2)cc1 -37.6%, COC(=O)c1cc2oc(C)cc2n1CC(=O)Nc1cc(Cl)ccc1OC 3.26%, CCOC(=O)c1ccc(NC(=O)CCc2c(C)nc3c(-c4ccc(F)cc4)c(C)nn3c2C)cc1 -12.8%, Cc1ccc(-c2onc(C)c2C)cc1S(=O)(=O)Nc1ccc(Cl)cn1 -11.4%, Cc1ccccc1C(=O)Nc1ccc(C(=O)OCc2cc(=O)n3nc(C(C)C)sc3n2)cc1 4.38%, COc1ccc(NC(=O)C2Cc3ccccc3N2C(=O)c2ccccc2)cc1OC (configuration not stated) -26.1%, CCOc1ccc(NC(=O)N(C(C)C)C2CCN(C(C)=O)CC2)cc1 -0.404%, COC(=O)c1cccc(Nc2nn3c(=O)c4cc5c(cc4nc3s2)OCO5)c1 -5.76%, COc1ccc(-c2[nH]c3ccccc3c2SCCNC(=O)c2ccc(S(=O)(=O)N(C)C)cc2)cc1 -27.5%, COc1ccc(S(=O)(=O)NCC(c2ccc(N(C)C)cc2)N2CCOCC2)cc1 (configuration not stated) -11.5%, Cc1ccc2[nH]c3c(=O)n(CC(=O)NC(C)C)ncc3c2c1 -11%, COC(=O)Nc1nc2ccc(Sc3ccccc3)cc2[nH]1, COc1ccc(CNC(=O)CSc2ncc(S(=O)(=O)c3ccc(Br)cc3)c(=O)[nH]2)cc1 -15%
